Data reported in PubChem BioAssay AID1159614 (National Center for Advancing Translational Sciences (NCATS), 2016).
The campaign covered roughly 45,000 compounds. About 65 (0.1%) were called active. Calls follow the shape of the dose curve; as a rule, active = well fitted activation curve with a large enough effect; inconclusive = small, poorly fitted or top-dose-only effect; inactive = no such curve, though single readings can be large or run the other way. Some of the results follow.

Target: Galactocerebrosidase (Homo sapiens) (UniProt P54803)
Sequence of UniProt P54803 (P54803 whole entry, looked up): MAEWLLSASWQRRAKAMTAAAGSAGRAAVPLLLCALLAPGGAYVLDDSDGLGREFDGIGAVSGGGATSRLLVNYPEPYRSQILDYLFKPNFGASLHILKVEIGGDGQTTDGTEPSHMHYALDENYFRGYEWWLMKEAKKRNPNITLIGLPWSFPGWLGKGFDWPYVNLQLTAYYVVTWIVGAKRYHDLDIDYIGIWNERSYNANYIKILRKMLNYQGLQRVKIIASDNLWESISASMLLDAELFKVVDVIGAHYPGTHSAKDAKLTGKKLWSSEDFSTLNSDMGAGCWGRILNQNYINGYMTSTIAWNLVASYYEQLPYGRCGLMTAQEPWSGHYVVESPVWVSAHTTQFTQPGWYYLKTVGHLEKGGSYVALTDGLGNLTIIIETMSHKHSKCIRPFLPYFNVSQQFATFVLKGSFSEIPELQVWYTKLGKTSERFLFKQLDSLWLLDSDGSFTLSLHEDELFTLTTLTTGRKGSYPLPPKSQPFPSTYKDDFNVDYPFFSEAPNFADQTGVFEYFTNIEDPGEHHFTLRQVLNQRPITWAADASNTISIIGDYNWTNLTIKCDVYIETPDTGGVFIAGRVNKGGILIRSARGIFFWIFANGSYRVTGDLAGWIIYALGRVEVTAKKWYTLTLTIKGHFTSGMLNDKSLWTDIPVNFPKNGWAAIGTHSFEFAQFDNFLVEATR
Experiment: A Novel Cell-Based Assay to Identify Small Molecules for B -Galactocerebrosidase; also: 0% is about no effect; nearly all actives have a fitted effect of over 65% in size
Settings: 145M-Twi-hGALC-G270D cells (Twitcher mouse brain line with human GALC G270D), HMU-beta-Gal fluorescence, 48 h; series mostly up to 57.5 µM; activation: at the top concentration
In short: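 Fluorogenic HMU-b-Gal hydrolysis (0.1 mM final, pH 5.2 citrate-phosphate with 1 mg/mL sodium taurocholate; carbonate stop buffer) measures mutant GALC activity after compound treatment of live 145M-Twi Twitcher brain cells stably carrying human GALC-G270D, with wild-type GALC line alongside; activation sought.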

activation, inactive:
CCOC(=O)c1c(NC(=O)/C=C/c2ccc(C)cc2)sc2c1CCCC2 -1.28%
Cc1ccc(Nc2c(-c3ccc(C)s3)nc3ncccn23)cc1 -13%
CCCCOC(=O)c1ccc(NC(=O)c2cc(-c3cccs3)on2)cc1 -0.881%
O=c1[nH]c2ccc(NCc3ccc(-c4ccccc4)o3)cc2[nH]1 -10.6%
Cc1ccc(Cn2c(=O)n(CCCCC(=O)NCc3ccccc3Cl)c(=O)c3ccccc32)cc1 1.94%
Cc1cccc(OCC(=O)Nc2ccccc2C(=O)OCc2cc(=O)n3nc(C)sc3n2)c1 -11.2%
O=C(NCc1ccccc1F)C(=O)NCC(c1ccco1)S(=O)(=O)c1cccs1 (stereo unspecified) -12.3%
CCOc1ccc(NC(=O)CCCc2nnc3n(C)c(=O)c4sccc4n23)cc1 -11.7%
CC1=C(C(=O)Nc2ccccc2)C(c2cccc(Cl)c2)n2nc(SCC(=O)c3ccc(C)cc3)nc2N1 (stereo unspecified) -10.1%
O=C(CSc1nc(-c2ccccc2)nc2c1Cc1ccccc1O2)N1CCCCC1 -4.94%
COc1ccc(OC)c(NC(=O)c2cn(CC(C)C)c(=O)c3cc(OC)c(OC)cc23)c1 -14%
Cc1ccc(CCNC(=O)c2cc3c(-c4ccccc4F)nn(C)c3s2)cc1 -0.428%
O=C(Nc1ccc2oc(-c3ccc4ccccc4c3)nc2c1)c1ccc(Cl)c(Cl)c1 -19.5%
CCOc1ccccc1Nc1sc(C(=O)c2ccccc2)c(N)c1S(=O)(=O)c1ccc(C)cc1 -4.62%
O=C(Nc1ccc(C(=O)OCc2cc(=O)n3nc(C4CC4)sc3n2)cc1)c1cccc(F)c1 -1.62%
CCN(c1ccccc1)S(=O)(=O)c1ccc(NC(=O)c2cc(=O)c3ccccc3o2)cc1 16.4%
CCOc1ccc(-c2oc3ccc(C)cc3c(=O)c2O)cc1 -16.7%
Fc1ccc(Nc2ncnc3c2nc2n3CCCCC2)c(F)c1 -3.22%
COCCCNC(=O)c1ccc2c(c1)nc(C)n2-c1cccc(C)c1 -15.8%
Cc1c(C(=O)OC2CCCCC2)[nH]c2c1C(=O)CC(c1ccc(C(C)(C)C)cc1)C2 (stereo unspecified) -10%
CCCc1nnc(NC(=O)c2cc(=O)c3cc(C)c(C)cc3o2)s1 -6.74%
CCC(=O)N1CCc2cc(Br)cc(S(=O)(=O)CCC(=O)N3CCN(c4cc(C)ccc4C)CC3)c21 -25.8%
COc1ccc2c(CNC3CCCCCC3)c(C(=O)O)n(Cc3ccccc3F)c2c1 -10%
CCOC(=O)c1cc(-c2ccc(OC)cc2)n(CCC(=O)NC2CCCCC2)c1C -37.2%
CCOC(=O)c1c(S(=O)(=O)N2CCC(C(=O)Nc3ncccc3C)CC2)c(C)n(C)c1C -10%
Cc1nc2cccnc2n1C1CCN(C(=O)Nc2ccccc2)CC1 -3.63%
O=C(c1ccccc1)N1CCCC(c2nc3c(nnn3Cc3ccc(F)cc3F)c(=O)[nH]2)C1 (stereo unspecified) -7.19%
COc1cc(C(=O)Nc2ccc(-n3c(C)nc4ccccc4c3=O)cc2)cc(OC)c1OC -29.9%
Cc1cc(C)cc(N2CC(c3nnc(NC(=O)c4ccco4)s3)CC2=O)c1 (stereo unspecified) -15.4%
CCSc1ncc(Cl)c(C(=O)N(Cc2ccccc2)c2ccc(OC)cc2)n1 -21.2%
COc1cc(CNCCSc2nnnn2C)ccc1OCc1ccc(C)cc1 -13%
CCOc1cccc(NC(=O)c2sc3nc(-c4ccc(F)cc4)ccc3c2N)c1 -9.82%
O=c1c(=O)n(-c2ccccc2)ccn1Cc1c(F)cccc1Cl -3.03%
O=C(COCc1cc(-c2cccs2)on1)N1CCN(c2ccc(F)cc2)CC1 -5.77%
COc1ccc(CNS(=O)(=O)c2cc(Br)cc3c2N(C(C)=O)C(C)C3)cc1 (stereo unspecified) -7.23%
CCOC(=O)C1CCN(C(c2ccc(OCC)cc2)c2c(O)cc(C)n(CCOC)c2=O)CC1 (stereo unspecified) -1.35%
O=C(NCc1cccc(F)c1)c1ccc(CN2CC(=O)N3CCCCC3C2=O)cc1 (stereo unspecified) -1.51%
O=c1c2oc3ccccc3c2n(Cc2ccc(F)cc2)c(=O)n1Cc1ccco1 -13.3%
Cc1nc(-c2ccc(Cl)cc2)oc1COC(C)(C)C(=O)O -11.3%
Cc1ccc(-c2noc(-c3ccc(NCc4cccnc4)c([N+](=O)[O-])c3)n2)cc1 -2.58%
CCCCn1c(=NC(=O)c2c(-c3c(F)cccc3Cl)noc2C)c(C(=O)OCC)cc2c(=O)n3ccccc3nc21 -11.5%
Cc1cccc(C(=O)NCCc2nc3ccccc3n2Cc2ccc(Cl)cc2)c1 0.3%
CC(Sc1nc2c(c(=O)[nH]1)CCCC2)C(=O)Nc1cc(C(F)(F)F)ccc1Cl (stereo unspecified) -11.4%
CCOC(=O)c1cccc(NS(=O)(=O)c2ccc3[nH]c4c(c3c2)CCCC4)c1 -2.97%
Cc1ccc(OC(C)C(=O)N2CCN(CCc3ccncc3)CC2)cc1C (stereo unspecified) -7.5%
Cc1ccc(-n2cnc3cc(C(=O)NCc4ccc(F)cc4)ccc32)c(C)c1 -9.43%
CCOC(=O)c1ccc2nc(C)cc(Nc3ccc(OC(C)C)cc3)c2c1 -25.5%
CCCCc1ccc(-n2nc3cc(Cl)c(NC(=O)c4ccc(OC)cc4)cc3n2)cc1 -0.0295%
CCOC(=O)C1CCN(c2nc3c(S(=O)(=O)c4ccccc4)nnn3c3ccc(Cl)cc23)CC1 -16%
Cc1ccc(NC(=O)CN2CCN(c3ccccc3F)CC2)cc1F -18.7%
Cc1ccc(Cn2c(C)c(CNCC(C)c3ccccc3)c(C(=O)O)c2C)cc1 (stereo unspecified) -3.46%
O=S(=O)(NCc1ccc(Cl)cc1)c1ccc2[nH]c3c(c2c1)CCCC3 -3.43%
CCOc1ccc(-c2cc3c(=O)n(Cc4nc(-c5ccccc5OCC)oc4C)ccn3n2)cc1Cl 16.8%
Cc1ccc(NC(=O)c2ccc(Cl)cc2Cl)c(C(=O)c2ccccc2)c1 -12.7%
COCCCNC(=O)C1CCC(Cn2c(=O)c3sccc3n(C)c2=O)CC1 (stereo unspecified) -17.5%
CCC(CC)C(=O)Nc1ccccc1SCc1cc(=O)c2cccc(C)c2[nH]1 -4.25%
CCOC(=O)C(CC)n1nc(C)c2c(C)n(-c3ccc(C)cc3)nc2c1=O (stereo unspecified) 0.842%
COc1ccc(-n2cc(-c3ccc4c(c3)OCO4)n(CC(=O)Nc3cccc(C)c3C)c2=O)c(OC)c1 -20.1%
CCCCN(CCCNC(=O)c1cc(Nc2ccc(OC)cc2)nc2ccccc12)Cc1ccccc1 -1.1%
COc1ccc(C(=O)c2sc3nc(-c4ccc(C)cc4)cc(C(F)(F)F)c3c2N)cc1 -26%
Cc1ccc(C)c(N2CCN(S(=O)(=O)c3ccc(-c4coc(C)n4)cc3)CC2)c1 -38.1%
COc1cc(OC)cc(C(=O)Nc2ccc(-c3nc4cc(C(C)C)ccc4o3)cc2)c1 -9.45%
CCCCc1c(C)nc2c(-c3ccc(Cl)cc3)c(C)[nH]n2c1=O -18.1%
Cc1cccc(N2CCN(C(=O)Cn3ncc4c5ccccc5n(C)c4c3=O)CC2C)c1 (stereo unspecified) -14.5%
COc1cc2c3cc1Oc1cc(ccc1O)C[C@@H]1c4c(cc(OC)c(O)c4Oc4ccc(cc4)C[C@@H]3N(C)CC2)CC[N+]1(C)C -21.3%
O=c1c(S(=O)(=O)c2ccccc2)cn(Cc2ccc(F)cc2)c2cc(N3CCOCC3)c(F)cc12 -30.9%
CCOC(=O)c1ccc(N2C(=O)c3n[nH]c(-c4cccs4)c3C2c2ccc(CC)cc2)cc1 (stereo unspecified) -21.9%
O=S(=O)(Nc1ccc(F)c(Cl)c1)c1ccc(Br)s1 -23.6%
Cc1ccc(S(=O)(=O)c2nc(S(=O)(=O)c3ccc(C)cc3)c(NCCCOC(C)C)s2)cc1 -13.9%
COc1cccc2cc(-c3nc(Nc4cccc(C)c4C)sc3C)c(=O)oc12 -8.98%
Nc1nonc1C(=O)NCCNCc1ccccc1F -8.63%
O=C(COCc1cc(-c2ccc(F)cc2)on1)Nc1cc(Cl)ccc1O -17.9%
CC(=O)C1=C(c2ccc(Cl)c(Cl)c2)N(C(C)=O)n2c(nnc2-c2ccccc2)S1 -10.4%
COc1ccc(CCNC(=O)CCCn2c(=O)c3ccccc3n(Cc3ccccc3C#N)c2=O)cc1OC -13.9%
Cc1ccccc1-n1nc(CO)c(C(=O)NCC(c2ccccc2)c2ccccc2)n1 -7.89%
CCOC(=O)c1c(NC(=O)/C=C/c2ccc(C)cc2)sc(C(C)=O)c1C -9.03%
CC1(C)[C@H](C(=O)O)N2C(=O)C[C@H]2S1(=O)=O -8.45%
CC(=O)Nc1nonc1-c1nnc(SCC(=O)Nc2cc(Cl)ccc2C)n1C -35.7%
COc1cc(C(CC(=O)Nc2cccc(C(C)=O)c2)N2Cc3ccccc3C2=O)cc(OC)c1OC (stereo unspecified) 7.68%
COc1cccc(C2C=C(c3ccccc3)Nc3c(C(=O)Nc4ccccc4)cnn32)c1OC (stereo unspecified) -3.58%
Cc1ccc(CSCCC(=O)N2CCN(c3ccc(F)cc3)CC2)cc1 -15%
COc1ccccc1CNC(=O)Cn1c(-c2ccc(F)cc2)cc(C(C)=O)c1C -13.5%
CCN(CC)CCN(C(=O)c1ccco1)c1nc2c(C)c(C)ccc2s1 10.4%
O=C(Cn1nc(Cc2ccncc2)c2ccccc2c1=O)Nc1cccc(C(F)(F)F)c1 -12.6%
CN(C(=O)c1c[nH]c2ccc(S(=O)(=O)Nc3cccc(C(F)(F)F)c3)cc2c1=O)C1CCCCC1 -13.3%
COc1ccc(N2CCN(C(=O)CN3CCSc4ccccc43)CC2)cc1 -21.3%
Cc1ccc(-c2cc(C(F)(F)F)n3nc(-c4cccc(Br)c4)cc3n2)cc1 -12.4%
CC(=O)Nc1ccc(NC(=O)CN2C(=O)CC(c3ccco3)Sc3ccccc32)cc1 (stereo unspecified) -6.93%
Cc1cccc(C)c1Nc1c(-c2ccc(N3CCOCC3)cc2)nc2ncccn12 -11.9%
O=C(NCCc1ccc(Cl)cc1)c1nnc(Cc2ccc(F)cc2)o1 -9.1%
O=C(CCSCc1ccc(Cl)cc1)NCCc1ccccc1 -10.6%
Cc1ccc(NC(=O)C2CCCN(c3ncnc4onc(C)c34)C2)c(Cl)c1 (stereo unspecified) -12.9%
CN(C)S(=O)(=O)c1ccc(C(=O)NCCSc2c(-c3ccc(Br)cc3)[nH]c3ccccc23)cc1 -9.85%
COc1ccccc1NC(=O)c1nn(C)c2c1CS(=O)(=O)c1ccccc1-2 -10.4%
CCCCNC(=O)CC1Nc2cc(C)c(C)cc2NC1=O (stereo unspecified) -12.2%
Cc1c(Cl)cccc1N1CCn2c1nc1c2c(=O)n(CC(=O)O)c(=O)n1C -16.3%
